The record followed here is PMC7819943, “Rice protein-binding microarrays: a tool to detect cis-acting elements near promoter regions in rice”.

The list shows a part of the results.

The target in the assay is T1, OsWOX13 (Oryza sativa, UniProt Q5QMM3 1-267).
T1 sequence: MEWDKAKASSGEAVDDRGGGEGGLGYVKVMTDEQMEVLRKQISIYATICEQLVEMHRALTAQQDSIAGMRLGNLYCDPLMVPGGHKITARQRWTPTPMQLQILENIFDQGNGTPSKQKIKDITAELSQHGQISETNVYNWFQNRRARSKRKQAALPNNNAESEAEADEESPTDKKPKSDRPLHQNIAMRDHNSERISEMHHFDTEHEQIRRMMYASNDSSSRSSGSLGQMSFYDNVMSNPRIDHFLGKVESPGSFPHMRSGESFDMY
As to the kind of experiment: protein-binding microarray (RPBM); PBS, 2% BSA, 51.3 ng/ul salmon testes DNA, 50 uM zinc acetate, 200 nM TF, 25 C, 1 h; high values mean tight binding. Conditions: protein: recombinant; tags: N-terminal polyhistidine and DsRed monomer fusion (pET32a); label: CyDye5-dUTP incorporated in the synthesized complementary strand; 3' TTTTT single-stranded linker to array surface; dsDNA, one strand shown. In a few lines:
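The binding signal is fluorescence intensity per array feature (arbitrary units). Readings came from an Axon 4000B scanner after a washed, 2% BSA-blocked, double-stranded custom Agilent array had been incubated for 1 h at 25 °C with 200 nM protein and 50 µM zinc acetate. The protein was a Ni–NTA-purified transcription factor fused N-terminally to polyhistidine and DsRed, expressed in E. coli BL21-CodonPlus.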
On to “CTTGATTTTATAAAATAGAAAAGAAAACCAATGTCAGCAACGGAGTCACCTAGTGCAG”, for which the binding signal is 20700 fluorescence intensity (a.u.).
To “ACAGATTAGGCTGTCAGATTTACTACTGGGAGTATGAACCCGGAGTCACCTAGTGCAG” belongs 6870 fluorescence intensity (a.u.); to “TTTCAGCACATCATTCCAATTTCAATCATATTTCCAAACTCGGAGTCACCTAGTGCAG”, 4200 fluorescence intensity (a.u.); to “CTATTTCATTAGACCCTAAACAGTCTTTTGGCTCATTTTACGGAGTCACCTAGTGCAG”, 4570 fluorescence intensity (a.u.).
To “TTTCTAAATTGTATTTCTATATGGACTCTAGTCTCCTCTTCGGAGTCACCTAGTGCAG” belongs 4990 fluorescence intensity (a.u.); to “GTCATTCTCTAACCAATTTGATTAGCTTGTTCATAGTAATCGGAGTCACCTAGTGCAG”, 8230 fluorescence intensity (a.u.).
Under “AATACTAAATTATCAAGTTCTTGTACTAGAACGCGCCTACCGGAGTCACCTAGTGCAG” stands 3770 fluorescence intensity (a.u.).
Regarding “TAGCAAATATAAATTACACTGCAGAAAGGCATCTGGACAGCGGAGTCACCTAGTGCAG”, the binding signal is 4380 fluorescence intensity (a.u.).
On to “CCGAATTATGACCAAATTTCCAACATAAATTTCTTACTTTCGGAGTCACCTAGTGCAG”, for which the binding signal was 4010 fluorescence intensity (a.u.).
To “CGGTAATTACTACTCCCTCCGTCCCAAAATAAGTGCAGTTCGGAGTCACCTAGTGCAG” belongs 26300 fluorescence intensity (a.u.); to “GTATAACTGGACGAATTCGAGGGCGAATTCGATTGAAGGACGGAGTCACCTAGTGCAG”, 3370 fluorescence intensity (a.u.).
Under “TGACATTAATTAGCTTCAACGATTTGATGGATTTGTTGAGCGGAGTCACCTAGTGCAG” stands 36500 fluorescence intensity (a.u.); under “CCTAATTTGCGTGATTGGATTGGTTGGTTGTGTTGTAATGCGGAGTCACCTAGTGCAG”, 65000 fluorescence intensity (a.u.).
To “GGCTTTCCAGTTGATAAATCAATCATCATCCCCTTGATCGCGGAGTCACCTAGTGCAG” belongs 8410 fluorescence intensity (a.u.); to “TACTTCATTTGTTTAATTATTTCATGCACTACGGTTTTCTCGGAGTCACCTAGTGCAG”, 4420 fluorescence intensity (a.u.); to “CTAGCAAATTCATAATTTAAATCTTTCAATTTTAACATCACGGAGTCACCTAGTGCAG”, 4440 fluorescence intensity (a.u.).
Consider “AAACATTAATTAAATCTAATCTTTCATGTTTGTAATAGTTCGGAGTCACCTAGTGCAG”, for which the binding signal was 10800 fluorescence intensity (a.u.).
Take “GCGTAAACTGAACACACCCTGTATCTACACCATCGATCACCGGAGTCACCTAGTGCAG”: the binding signal is 3760 fluorescence intensity (a.u.).
Consider “GTGATTATCTGAACAAGATTCCACGATGGAGTGTCTGGACCGGAGTCACCTAGTGCAG”, for which the binding signal is 5640 fluorescence intensity (a.u.).
To “GCAATAATAATTACTGATAGCCACCACTATCAATAATAATCGGAGTCACCTAGTGCAG” belongs 12600 fluorescence intensity (a.u.).
For the sequence “TAATGATTGAAATGTATCTTAGCCCAATTCATCTGGAGTACGGAGTCACCTAGTGCAG”, the binding signal was 51200 fluorescence intensity (a.u.).
As for “TCTGTCGTCAGTGAATTAATTATCACAAACACGAATAATGCGGAGTCACCTAGTGCAG”, the binding signal was 12000 fluorescence intensity (a.u.).
Turning to “TTATATTATAAAATTTTAATTTATTATAAAATATTTGCTTCGGAGTCACCTAGTGCAG”, the binding signal is 8470 fluorescence intensity (a.u.).
Under “GAATAATTGCGCTTTGTCATGGCATTTGCATGAGCTTCAACGGAGTCACCTAGTGCAG” stands 22700 fluorescence intensity (a.u.); under “AAATTCCTGATTAAATCAGCTGGGTGGACAAAATCTTTGACGGAGTCACCTAGTGCAG”, 11600 fluorescence intensity (a.u.).
Consider “AATTCCATCATCCATCATCACACAGCTCACTGACCAGCAGCGGAGTCACCTAGTGCAG”, for which the binding signal is 3920 fluorescence intensity (a.u.).
With “GAATGATGACTGGACTGCCACACGTACACCACGTAGACCACGGAGTCACCTAGTGCAG”, the binding signal is 9710 fluorescence intensity (a.u.).
Turning to “ACTAATCCATCATGAGATGATGGGCCGACGCAGCCTCTCGCGGAGTCACCTAGTGCAG”, the binding signal was 5450 fluorescence intensity (a.u.).
As to “CAGAATTGGAAGATGTGGTATTGGTGAAAACTTCTGAGCCCGGAGTCACCTAGTGCAG”, the binding signal was 6100 fluorescence intensity (a.u.).
“CTTCGTTGAGTGATTTGGTTGGATATCGGAAGGAAAGAGACGGAGTCACCTAGTGCAG”: the binding signal was 3680 fluorescence intensity (a.u.).
To “ATTATTATGATGTAATTATGCCAAGTTATTATATATAAATCGGAGTCACCTAGTGCAG” belongs 4590 fluorescence intensity (a.u.).
Under “TTCTAATAATTTGATATTAGGTCATTCCCTAATATTCGTGCGGAGTCACCTAGTGCAG” stands 25000 fluorescence intensity (a.u.); under “TGATAACTAACAATTTTGGTACTAAACCGATGGTCTAAGTCGGAGTCACCTAGTGCAG”, 4060 fluorescence intensity (a.u.).
Under “ATGATCCTTTAATTGTCATGCAGCGCTTGACTGTTCCTTTCGGAGTCACCTAGTGCAG” stands 3650 fluorescence intensity (a.u.); under “AGAGAATTATAAATTGAGTATTATTTATTACAAACCTATACGGAGTCACCTAGTGCAG”, 6560 fluorescence intensity (a.u.).
For the sequence “TTAATGTTAAATTTAATGAAACTAATTTAGTGTTGTAGATCGGAGTCACCTAGTGCAG”, the binding signal is 27000 fluorescence intensity (a.u.).
To “ATTAAAATAAATTACTCTAATGTCATTCTAGGGCATTCTACGGAGTCACCTAGTGCAG” belongs 9830 fluorescence intensity (a.u.); to “CATCTTTGACCGGTTAAATTAGATCCTGTTCTAGATGAGGCGGAGTCACCTAGTGCAG”, 3480 fluorescence intensity (a.u.); to “GTTTAAATTTGAATAGTGTAAGGGTCAATTTTATTCGAGACGGAGTCACCTAGTGCAG”, 5050 fluorescence intensity (a.u.).
Consider “GATTTTCTATGTCAAAAGGATAATTATTAATGCTAGCAATCGGAGTCACCTAGTGCAG”, for which the binding signal was 3690 fluorescence intensity (a.u.).
Under “ATGGAAATTGATTAGGAGATTATTGATGCGATAAGTAGTACGGAGTCACCTAGTGCAG” stands 37000 fluorescence intensity (a.u.); under “GAAATTAATTTAGCTCTACATCCGTTCTGTTTATGAATAACGGAGTCACCTAGTGCAG”, 29700 fluorescence intensity (a.u.).
